Results on 39 compounds are retold here after the antibiotic and cytotoxicity screens of Wong et al. (2023).

This is one part of the list.

In this test the test system is HSkMC (human skeletal muscle cells). Kind of test: cytotoxicity call (relative viability < 0.9). The settings on record: 10 µM.
Consider `C[C@@H]1CCCCO[C@H](CN(C)Cc2ccc(C(=O)O)cc2)[C@H](C)CN([C@H](C)CO)C(=O)c2cc(NC(=O)Nc3ccc(C(F)(F)F)cc3)ccc2O1`, for which the cytotoxicity call was “inactive”.

With `COc1ccc(NC(=O)Nc2ccc3c(c2)C(=O)N([C@@H](C)CO)C[C@H](C)[C@H](CN(C)C(=O)C2CCCCC2)OCCCC[C@H](C)O3)cc1`, the cytotoxicity call is “inactive”.

With `COCCCNC(=O)[C@@]1(Sc2ccc(C)cc2)CC(=O)N(Cc2cc(C(F)(F)F)cc(C(F)(F)F)c2)[C@@H]1c1ccc(CO)cc1`, the cytotoxicity call was “inactive”.

`COc1ccc(CN(C)C[C@H]2Oc3ccc(NS(=O)(=O)c4cn(C)cn4)cc3C(=O)N([C@@H](C)CO)C[C@@H]2C)cc1`: the cytotoxicity call is “inactive”.

`CCS(=O)(=O)N1C[C@]2(CN(C2)S(=O)(=O)c2cn(cn2)C)c2c(n(c3cc(ccc23)OC)C)[C@@H]1CO`: the cytotoxicity call is “inactive”.

As for `CCCC#Cc1ccc2c(c1)O[C@@H](CN(C)C(=O)c1cnccn1)[C@H](C)CN([C@@H](C)CO)S2(=O)=O`, the cytotoxicity call is “inactive”.

Consider `CS(=O)(=O)Nc1ccc2c(c1)[C@@H]1C[C@@H](CC(=O)NCc3ccc(-c4ccccc4)cc3)O[C@H](CO)[C@@H]1O2`, for which the cytotoxicity call is “inactive”.

Consider `COc1ccc(S(=O)(=O)Nc2ccc3c(c2)C(=O)N([C@@H](C)CO)C[C@H](C)[C@@H](CN(C)Cc2ccncc2)O3)cc1`, for which the cytotoxicity call is “inactive”.

Turning to `Cc1ccc(S(=O)(=O)Nc2ccc3c(c2)CC(=O)N([C@H](C)CO)C[C@@H](C)[C@@H](CN(C)Cc2ccc(-c4ccccc4)cc2)O3)cc1`, the cytotoxicity call was “active”.

Take `Cc1cc(C)c(NC(=O)CN(CC(=O)O)CC(=O)O)c(C)c1Br`: the cytotoxicity call was “inactive”.

`C[C@@H]1CN([C@H](C)CO)C(=O)c2cc(NC(=O)Nc3ccc4c(c3)OCO4)ccc2O[C@H]1CN(C)C(=O)Nc1cccc2ccccc12`: the cytotoxicity call was “inactive”.

Take `C[C@@H]1CN([C@@H](C)CO)C(=O)Cc2cc(NC(=O)c3ccncc3)ccc2O[C@H]1CN(C)S(C)(=O)=O`: the cytotoxicity call is “inactive”.

Consider `C#CCCCCCCCCCCCC(O)CC(O)CO` (centres undefined), for which the cytotoxicity call is “inactive”.

`[O-][NH2+]N1CCCC1`: the cytotoxicity call was “inactive”.

As for `C[C@@H]1CN([C@@H](C)CO)C(=O)c2cc(NS(=O)(=O)c3ccccc3)ccc2O[C@@H](C)CCCCO[C@@H]1CN(C)Cc1ccc(C(=O)O)cc1`, the cytotoxicity call is “inactive”.

For the compound `COc1ccc(-c2cc(=O)c3c(O)cc(OC)c(OC)c3o2)c(OC)c1`, the cytotoxicity call was “inactive”.

As for `CC(=O)N[C@H]1CSSC[C@@H](C(N)=O)NC(=O)[C@H](C(C)C)NC(=O)[C@H](C)NC(=O)[C@H](Cc2cnc[nH]2)NC1=O`, the cytotoxicity call was “inactive”.

As to `CC(C)NC(=O)N(C)C[C@@H]1Oc2ccc(NC(=O)CCC(F)(F)F)cc2C(=O)N([C@H](C)CO)C[C@@H]1C`, the cytotoxicity call is “inactive”.

Consider `C[C@@H]1CCCCO[C@@H](CN(C)C(=O)Nc2ccc(F)cc2)[C@@H](C)CN([C@@H](C)CO)C(=O)c2cc(NC(=O)Cc3ccccc3)ccc2O1`, for which the cytotoxicity call was “inactive”.

For `Cc1ccc(S(=O)(=O)Nc2cccc3c2O[C@@H](CN(C)S(=O)(=O)c2cn(C)cn2)[C@@H](C)CN([C@H](C)CO)C3=O)cc1`, the cytotoxicity call is “inactive”.

Consider `C[C@@H]1CN([C@H](C)CO)C(=O)c2cccc(NC(=O)c3cnccn3)c2O[C@@H]1CN(C)S(=O)(=O)c1ccccc1`, for which the cytotoxicity call was “inactive”.

`O=c1cc(-c2ccccc2O)oc2cc(O)ccc12`: the cytotoxicity call is “inactive”.

In the case of `CC/C(=C\c1ccccc1)C(=O)O`, the cytotoxicity call was “inactive”.

As for `COc1cccc(NC(=O)C[C@@H]2CC[C@@H]3[C@H](COc4ccc(NC(=O)C5CCOCC5)cc4C(=O)N3C)O2)c1`, the cytotoxicity call was “inactive”.

In the case of `C[C@@H]1CCCCO[C@@H](CN(C)Cc2ccc(Cl)c(Cl)c2)[C@H](C)CN([C@H](C)CO)C(=O)c2cc(NC(=O)Cc3ccccc3)ccc2O1`, the cytotoxicity call was “active”.

As to `COc1ccccc1CNC(=O)C[C@H]1CC[C@H]2[C@@H](COC[C@@H](O)CN2C(=O)Nc2ccc(F)cc2)O1`, the cytotoxicity call was “inactive”.

For `Cc1noc(C)c1S(=O)(=O)N(C)C[C@@H]1OCCCC[C@H](C)Oc2ccc(N(C)C)cc2C(=O)N([C@H](C)CO)C[C@H]1C`, the cytotoxicity call was “inactive”.

Turning to `Cc1ccc(S(=O)(=O)N(C)C[C@H]2Oc3c(NC(=O)NC(C)C)cccc3C(=O)N([C@@H](C)CO)C[C@H]2C)cc1`, the cytotoxicity call was “inactive”.

Regarding `C[C@H]1CN([C@@H](C)CO)C(=O)c2cc(/C=C/c3ccccc3)cnc2O[C@H]1CN(C)C(=O)Nc1ccc(C(F)(F)F)cc1`, the cytotoxicity call is “inactive”.

For the compound `OCc1cc2c(F)cccc2s1`, the cytotoxicity call is “inactive”.

As for `O=C(C[C@H]1C[C@H]2c3cc(NC(=O)Nc4ccccc4F)ccc3O[C@H]2[C@@H](CO)O1)NCc1ccc(Oc2ccccc2)cc1`, the cytotoxicity call was “active”.

As for `CCS(=O)(=O)N[C@@H]1CC[C@@H](CC(=O)NCC2CC2)O[C@H]1CO`, the cytotoxicity call was “inactive”.

Take `COc1ccc(S(=O)(=O)Nc2ccc3c(c2)C(=O)N([C@H](C)CO)C[C@@H](C)[C@@H](CN(C)Cc2ccc(-c4ccccc4)cc2)O3)cc1`: the cytotoxicity call is “active”.

Regarding `Cc1ccc(S(=O)(=O)N(C)C[C@H]2OCCCC[C@@H](C)Oc3ccc(NC(=O)CCC(F)(F)F)cc3C(=O)N([C@H](C)CO)C[C@H]2C)cc1`, the cytotoxicity call is “inactive”.

Consider `O=C(C[C@@H]1CC[C@H]2[C@@H](COC[C@H](O)CN2C(=O)c2ccncc2)O1)NC1CCC1`, for which the cytotoxicity call is “inactive”.

As for `CC(C)NC(=O)N(C)C[C@H]1Oc2ccc(NC(=O)c3ccncc3)cc2CC(=O)N([C@@H](C)CO)C[C@H]1C`, the cytotoxicity call is “inactive”.

With `C[C@@H]1CCCCO[C@@H](CN(C)S(=O)(=O)c2ccc(Cl)cc2)[C@H](C)CN([C@@H](C)CO)C(=O)c2cc(NC(=O)Nc3ccccc3)ccc2O1`, the cytotoxicity call is “inactive”.

As to `COc1ccc(NC(=O)N(C)C[C@H]2OCCCC[C@@H](C)Oc3ccc(NS(=O)(=O)c4c(C)noc4C)cc3C(=O)N([C@H](C)CO)C[C@@H]2C)cc1`, the cytotoxicity call is “inactive”.

As for `COc1ccc(CN(C)C[C@H]2OCCCC[C@H](C)Oc3ccc(NC(=O)Cc4ccccc4)cc3C(=O)N([C@H](C)CO)C[C@@H]2C)cc1`, the cytotoxicity call is “inactive”.
